Results as given in the supplement of paper PMC3724861.
This is one part of the list.

Test system: T1, Caupolican (Caup) homeodomain DNA-binding domain
T1 sequence: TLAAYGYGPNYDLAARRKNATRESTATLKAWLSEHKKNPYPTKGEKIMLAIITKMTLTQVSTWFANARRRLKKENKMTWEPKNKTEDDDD
Test: PBM E-score (8-mer, recovered from the published 9-mer minima) (E-score (dimensionless, -0.5 to 0.5)); Drosophila protein; higher = stronger relative binding preference, active = 0.31 or more
Method in brief: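 Caup's homeodomain DNA-binding domain (residues 214-303) was produced by in vitro transcription and translation and applied at 100 nM to custom-designed protein binding microarrays. Each value is an enrichment score giving relative binding preference for a short DNA word; higher means stronger. Published 9-mer scores were the minimum of their two constituent 8-mer scores, and the 8-mer values were recovered from those minima. A cutoff of 0.31 marks candidate binding sequences.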

Row | Sequence | PBM E-score
1 | AAAGTCCG | inactive: -0.105
2 | GTTAGAAA | inactive: 0.123
3 | AAACAACC | inactive: 0.202
4 | AAAGAGTT | inactive: -0.00574
5 | CCACGGGG | inactive: -0.228
6 | CCGCCAAC | inactive: -0.159
7 | GTGAGAAA | inactive: -0.0587
8 | ATTTCTGC | inactive: 0.0368
9 | CTTAAGCA | inactive: -0.0816
10 | AGAGAGGA | inactive: -0.0741
11 | CCCGCATA | inactive: -0.0221
12 | GCCGTACA | inactive: 0.116
13 | CAGATAAC | inactive: 0.075
14 | ACTCGTGG | inactive: -0.0419
15 | CTCTCAGA | inactive: -0.116
16 | AATATGAC | inactive: 0.174
17 | CCTATTAA | inactive: -0.0158
18 | ACCGTTAG | inactive: 0.0138
19 | AGCCAATG | inactive: -0.0223
20 | GTGTCGTA | inactive: 0.252
21 | AATTATTG | inactive: 0.086
22 | CCCTGCCG | inactive: -0.256
23 | GAGGAGGA | inactive: -0.0583
24 | GCGGAAAA | inactive: -0.0703
25 | AAGACAAC | inactive: 0.222

Row | Sequence | PBM E-score
26 | GCAAGGAC | inactive: -0.0784
27 | GCACCTGA | inactive: -0.0716
28 | ATTTGACC | inactive: -0.0206
29 | AAGTCTAG | inactive: -0.0142
30 | ACCATGAC | inactive: 0.0507
31 | ACAGAACT | inactive: 0.126
32 | AACGATGG | inactive: -0.0529
33 | ACCCTGAT | inactive: -0.0425
34 | AGATGAGA | inactive: -0.0051
35 | CTGATATC | inactive: 0.162
36 | AATCTAAA | inactive: -0.00549
37 | AGGCAAAC | inactive: -0.0423
38 | ACTTAGCG | inactive: 0.00663
39 | ATAAGGGC | inactive: -0.0994
40 | ATCACCAC | inactive: 0.0868
41 | CACCGCTC | inactive: -0.114
42 | ACTTTGAA | inactive: 0.0724
43 | GTCGAACA | inactive: 0.309
44 | CAGTAGTC | inactive: -0.0411
45 | ATGATATG | inactive: 0.167
46 | CCTTCTCG | inactive: -0.105
47 | GGAGTGAC | inactive: 0.0614
48 | CAGAGAGG | inactive: -0.107
49 | GTGCACGA | inactive: 0.109
50 | GGCCGTCA | inactive: -0.215

Row | Sequence | PBM E-score
51 | GAAATCTC | inactive: -0.121
52 | CTCTTGGA | inactive: 0.00091
53 | CCAGGGAG | inactive: -0.276
54 | ATTGACTA | inactive: 0.022
55 | CCGCCTCA | inactive: -0.276
56 | CCTGCGCG | inactive: -0.185
57 | CATCCTTA | inactive: 0.0386
58 | AGAAGGGG | inactive: -0.22
59 | ACGTTAAC | inactive: 0.0983
60 | CGAAGATA | inactive: -0.00211
61 | ACATTCAC | inactive: 0.135
62 | GTCTCCCA | inactive: -0.128
63 | ACGCTCTG | inactive: -0.0858
64 | CCACCATA | inactive: -0.0884
65 | ATTTGATG | inactive: 0.0738
66 | AGCACACA | inactive: 0.0184
67 | CTGCACAA | inactive: 0.0308
68 | CAACCGAC | inactive: 0.0158
69 | AGGATCTC | inactive: -0.0331
70 | AAACACTC | inactive: 0.134
71 | AGGAGTCC | inactive: -0.179
72 | CTTCGTGA | inactive: -0.0613
73 | ATGGGTGC | inactive: -0.00717
74 | CCGAGTTA | inactive: 0.0182
75 | ACCCGGCT | ≥ -0.141

Row | Sequence | PBM E-score
76 | GACGGCCC | inactive: -0.29
77 | TCGGCACA | inactive: -0.0477
78 | ATCATCCG | inactive: 0.0593
79 | AAGCAGGC | inactive: -0.15
80 | CTGTTCCA | inactive: 0.133
81 | GACTGTTA | inactive: 0.0636
82 | TCTGCACA | ≥ 0.0547
83 | GGATCGGA | inactive: 0.0204
84 | GAATGGAA | inactive: 0.0108
85 | TGCAAGAA | inactive: -0.0555
86 | CCTCCGAG | inactive: -0.22
87 | CCAGAGGA | inactive: -0.169
88 | AAATCAGG | inactive: 0.0748
89 | CCGAACGC | inactive: -0.158
90 | ACACGAGG | inactive: 0.111
91 | GATGGTCA | inactive: -0.0573
92 | AAGGGTAA | inactive: 0.0256
93 | CGAAATCG | inactive: -0.109
94 | CTGAACAA | inactive: 0.229
95 | CTTAGATC | inactive: 0.0341
96 | ACCAACCC | inactive: -0.0241
97 | CGCTCCCG | inactive: -0.229
98 | CTGTGCCA | inactive: -0.0558
99 | CGCGCCGC | inactive: -0.215
100 | CATGGACG | inactive: 0.0426

Row | Sequence | PBM E-score
101 | AGAATTAT | inactive: 0.108
102 | ACAGCTGA | inactive: -0.0257
103 | ACGTCGGA | inactive: -0.0828
104 | CTAAGCTA | inactive: -0.045
105 | AAGTCACC | inactive: 0.0213
106 | AGGTTCAG | inactive: -0.00097
107 | CTTCCTCC | inactive: -0.176
108 | CTTAAAAA | inactive: -0.0281
109 | AACGCGTG | inactive: -0.00042
110 | GGAGCTGA | inactive: -0.104
111 | AGTCGGGC | inactive: -0.154
112 | ACTGCTCC | inactive: -0.136
113 | CGCAGGCC | inactive: -0.227
114 | GAAACGGA | inactive: -0.00942
115 | GGCCACAA | inactive: -0.155
116 | CGAAGCCC | inactive: -0.228
117 | AAGCAGTG | inactive: -0.0544
118 | ATATGAGG | inactive: -0.0316
119 | ATTGTCGC | inactive: 0.0728
120 | CGCGCGTC | inactive: -0.108
121 | CGCAGCGA | inactive: -0.0492
122 | ACGAAAAA | inactive: 0.0766
123 | CCTCTATA | inactive: -0.0172
124 | CCCCGCAG | inactive: -0.269
125 | CTCGAGGC | inactive: -0.18

Row | Sequence | PBM E-score
126 | AAAGCTAG | inactive: -0.0179
127 | CGGCTAAG | inactive: -0.116
128 | GGGTCCCA | inactive: -0.168
129 | CCGGCACG | inactive: -0.158
130 | CGGCCAGA | inactive: -0.189
131 | ACTGTATG | inactive: 0.133
132 | GGTGACTA | inactive: 0.0115
133 | AACCCATT | inactive: -0.0217
134 | CCTGATGC | inactive: -0.103
135 | ACGGCTAG | inactive: -0.161
136 | ATACCCAG | inactive: -0.0527
137 | ATTGAACA | inactive: 0.253
138 | CCCGAGAA | inactive: -0.101
139 | AGGTGACG | inactive: -0.103
140 | AAGAGTCG | inactive: -0.0381
141 | ATATAACG | inactive: 0.153
142 | CGTACGGC | inactive: -0.0888
143 | CAATATAA | inactive: 0.15
144 | TGCGAGCA | ≥ -0.0483
145 | CGTGTAGA | inactive: 0.29
146 | CACGTCAC | inactive: 0.0784
147 | GGGATCCA | inactive: -0.123
148 | AATCGCGC | inactive: -0.0555
149 | AAAATTCG | inactive: 0.0694
150 | ACCCTTAT | inactive: 0.0224

Row | Sequence | PBM E-score
151 | CCCCCGGA | inactive: -0.248
152 | GAAGCAAC | inactive: -0.0181
153 | CGCGGTGA | inactive: -0.106
154 | GCGAAATA | inactive: 0.0256
155 | AAAACATC | inactive: 0.305
156 | CAACAGAG | inactive: 0.0219
157 | AACGCGTC | inactive: -0.0224
158 | CCATTCCA | inactive: -0.0346
159 | CTGGGAGC | inactive: -0.147
160 | AGGAGGGC | inactive: -0.17
161 | CGGAGACA | inactive: 0.0201
162 | CCATACCC | inactive: -0.155
163 | GGCACCGA | inactive: -0.0667
164 | CTGTGGGC | inactive: -0.0536
165 | AAACTTCC | inactive: -0.0959
166 | GATATACC | inactive: 0.121
167 | GATGTGAA | inactive: 0.139
168 | TAGGAACA | inactive: 0.191
169 | GTTCCCCA | inactive: -0.0823
170 | CGTTTGAG | inactive: -0.00713
171 | CCACACGA | inactive: -0.0269
172 | TAAGCTCA | inactive: -0.0929
173 | AAGCTCAG | inactive: -0.115
174 | AAACGAAA | inactive: 0.051
175 | CATAGCGC | inactive: 0.0107

Row | Sequence | PBM E-score
176 | CATAACGC | inactive: -0.00796
177 | AGATATCA | ≥ 0.162
178 | GAACTTCC | inactive: -0.0592
179 | GACCGGGA | inactive: -0.174
180 | ATGGCAAT | inactive: 0.00905
181 | CTAGCTAC | inactive: -0.00972
182 | GATTTACC | inactive: 0.0896
183 | GTAATTGA | inactive: 0.159
184 | CCACCCGC | inactive: -0.16
185 | ACACCACT | inactive: 0.204
186 | GTTTGGGA | inactive: 0.0152
187 | AACAAGCT | active: 0.312
188 | CAAATTCA | inactive: -0.046
189 | AATGTCCA | inactive: 0.251
190 | CCTGACAC | inactive: 0.142
191 | ACGCCCCG | inactive: -0.323
192 | CGGCGCCA | inactive: -0.155
193 | CAGAGCCG | inactive: -0.168
194 | ACTAATGG | inactive: -0.0216
195 | GATAGTGC | inactive: 0.00182
196 | CATCCCAC | inactive: -0.133
197 | GATTCAAA | inactive: 0.00644
198 | GAGTTATC | inactive: 0.0344
199 | CACCTTTA | inactive: -0.0576
200 | AGTGTGTA | inactive: 0.211

Row | Sequence | PBM E-score
201 | AAGAGGAG | inactive: -0.112
202 | ATACCTAG | inactive: 0.133
203 | CGAATCAG | inactive: 0.0329
204 | AGTACAGA | inactive: 0.138
205 | TACCGGGA | inactive: -0.026
206 | AACATTAA | inactive: 0.25
207 | ACACTCGT | inactive: 0.0679
208 | CTCATCTA | inactive: 0.0119
209 | CGCGATTC | inactive: -0.0903
210 | AGATCACC | inactive: 0.0519
211 | ACCGCATC | inactive: -0.12
212 | TACTACTA | ≥ 0.29
213 | CCACTGAG | inactive: -0.183
214 | GATCCAAA | inactive: 0.118
215 | AGCACTGG | inactive: -0.124
216 | AGTCCGAG | inactive: -0.0228
217 | ACAACCAT | inactive: 0.298
218 | AGCTCACC | inactive: -0.191
219 | CAAATACA | inactive: 0.245
220 | TAGAGAAA | inactive: -0.00911
221 | GCGATAGC | inactive: -0.045
